The whole screen tested about 52,000 compounds, of which about 4,300 (8.3%) were called active. No stated cut-off is given here; in the data, active means survival mostly below about 52% (no sharp cut-off); inactive means mostly above about 56%. This is one part of the list.
Tested on: DeltatarO mutant
Assay: growth inhibition of S. aureus wild type versus tarO mutant, primary screen, teichoic acid synthesis inhibitors, RN4220, OD600 (AID 463173)
Conditions: OD600, 18 h, active compounds read low, screened at 18.75 µg/mL (by protocol)

SMILES | survival
COc1ccc(Cl)cc1NC(=O)C1CCCN(c2ncnc3onc(C)c23)C1 (centres undefined) | inactive: 120%
CCOc1ccccc1CNC(=O)c1c(C)oc2ncnc(N3CCOCC3)c12 | inactive: 94%
CCOc1ccc(NC(=O)CSc2ccc(-c3sc(-c4ccccc4)nc3C)nn2)cc1 | active: 15%
CCOc1ccc2nc(Cl)c(C3CC(c4ccc(OC)cc4)=NN3S(C)(=O)=O)cc2c1 (centres undefined) | inactive: 127%
Cc1ccccc1C(=O)NC1(C(F)(F)F)N=C(c2ccccc2)N(C2CCCCC2)C1=O (centres undefined) | inactive: 86%
NC(=O)CN(c1ccccc1)C1SC(=O)NC1=O (centres undefined) | inactive: 76%
Cc1cccc(NC(=O)c2ccc3snnc3c2)c1C | inactive: 102%
O=c1c2cc3c(cc2n(Cc2ccc(F)cc2)c(=O)n1Cc1nc(-c2ccccc2)no1)OCO3 | inactive: 83%
Cc1cccc(NC(=O)c2cc3c(=O)n4cccc(C)c4nc3s2)c1C | inactive: 65%
CC(C)CN(CCCNC(=O)CN1N=C(c2ccc(Cl)cc2)CCC1=O)CC(C)C | inactive: 60%
CCCn1c(CNC(=O)c2ccc(F)cc2)nc2ccccc21 | inactive: 76%
Cc1ccc2oc(-c3ccc(C)c(NC(=O)c4ccc(N5CCC(C)CC5)c([N+](=O)[O-])c4)c3)nc2c1 | inactive: 135%
CNS(=O)(=O)c1cn(CC(=O)N2CCN(c3cccc(C)c3C)CC2)cc1S(=O)(=O)NC | inactive: 69%
Cc1ccc(S(=O)(=O)N(Cc2nc(-c3cccc(C)c3)no2)C2CCCCC2)cc1 | active: 46%
O=c1cc(-c2ccccc2)nc(SCc2nc(-c3ccc(Cl)cc3)no2)[nH]1 | inactive: 69%
O=C(COCc1cc(-c2ccc3c(c2)OCO3)on1)N1CCN(c2cccc(Cl)c2)CC1 | inactive: 63%
COc1ccc2nc(NS(=O)(=O)Cc3ccccc3)sc2c1 | inactive: 75%
O=C1CC2CCC(CN1)N2CC(=O)Nc1ccc(F)cc1 (centres undefined) | inactive: 99%
Clc1ccc2c(c1)NC(c1ccncc1)=NC(c1cccs1)=N2 | inactive: 76%
COc1ccc2c(c1)CCc1c(C(=O)Nc3c(C)nn(Cc4ccccc4C)c3C)noc1-2 | inactive: 32%
CCOc1ccccc1NC(=O)C(CC(C)C)NS(=O)(=O)c1ccc2c(c1)oc(=O)n2C (centres undefined) | inactive: 131%
COc1cc(CNC(=O)c2ccc3nc(CCc4ccccc4)oc3c2)cc(OC)c1OC | inactive: 80%
COC(=O)c1c(SC)nc2ccccc2c1OCc1ccc(Cl)cc1 | inactive: 92%

SMILES | survival
CN(C)c1ccc(-c2nc(-c3ccco3)no2)cc1[N+](=O)[O-] | inactive: 52%
Cc1ccc(Cl)cc1-n1ncc2c(NCCCc3ccccc3)ncnc21 | inactive: 118%
Cc1c(Nc2nc3ccccc3n3c(C)nnc23)cccc1C(=O)O | inactive: 90%
CCN(CC)S(=O)(=O)c1ccc2c(c1)N(CC(=O)N1CCN(c3cccc(OC)c3)CC1)C(=O)CO2 | inactive: 67%
CCc1ccc(NC(=O)c2ccc(F)c(S(=O)(=O)NCc3ccc(Cl)c(Cl)c3)c2)cc1 | inactive: 109%
O=c1[nH]ncc(NCc2ccc(Cl)cc2)c1Cl | inactive: 93%
CCc1nonc1NC(=O)c1oc2ccc(C)cc2c1C | inactive: 75%
COc1ccc(-c2cc(-c3ccc4c(c3)NC(=O)CO4)nc3c2COc2ccc(F)cc2-3)cc1 | inactive: 79%
CCOc1ccc(N2C(=O)c3n[nH]c(-c4cccs4)c3C2c2cccc(F)c2)cc1 (centres undefined) | inactive: 45%
CCc1cccc(C)c1NC(=O)CCn1c(=O)c2cccn2c2ccccc21 | inactive: 58%
CC(C)C(=O)NCC1(N(C)C)CCCCC1 | inactive: 85%
Cc1cc(N2CCN(c3cccc(C(F)(F)F)c3)CC2)n2nc(-c3ccccc3)nc2n1 | active: 41%
CCOc1ccc(C(=O)Nc2c(C(=O)N3CCN(c4ccccc4F)CC3)oc3ccccc23)cc1 | inactive: 83%
Cc1ccc(NS(=O)(=O)c2cc3[nH]c(=O)c(=O)[nH]c3cc2C)cc1Cl | inactive: 73%
Cc1ccc(NC(=O)N2CC3CCCN3c3ccccc32)c(C)c1 (centres undefined) | inactive: 86%
Fc1ccc(-n2ncc3c(N4CCCCCC4)ncnc32)cc1 | inactive: 71%
Cc1ccc(-c2cc(C(=O)N(Cc3ccc(C(C)(C)C)cc3)Cc3ccco3)no2)cc1 | inactive: 113%
COc1ccc(NC(=O)c2ccco2)cc1NC(=O)COc1ccc(Cl)c(C)c1 | inactive: 71%
Cc1ccc2nc(-c3ccc(Cl)c(NC(=O)COc4ccc(C(C)C)cc4)c3)oc2c1 | active: 42%
CC1(C)CC(=O)C(Sc2nnc(-c3ccc(O)cc3)n2CC2CCCO2)C(=O)C1 (centres undefined) | inactive: 63%
COc1ccc(NC(=O)CCc2nnc3n(Cc4ccccc4Cl)c(=O)c4ccccc4n23)cc1 | inactive: 93%
CC1CCCCN1C(=O)C1CCN(S(=O)(=O)c2ccc(-n3cnnn3)cc2)CC1 (centres undefined) | inactive: 87%
Cc1ccc(C)c(NC(=O)C2CCCN(S(=O)(=O)c3cn(C)cn3)C2)c1 (centres undefined) | inactive: 103%

SMILES | survival
Cc1ccc(N2C(=O)N(Cc3cc(=O)n4ccccc4n3)c3ccccc3S2(=O)=O)cc1Cl | inactive: 83%
CCOc1ccccc1CNC(=O)Cn1cc2c(n1)-c1c(oc(C(=O)N3CCCC3)c1C)CC2 | inactive: 75%
Cc1ccc(S(=O)(=O)CCSC(=N)N)cc1 | inactive: 96%
CCn1cc(C(=O)N2CCN(c3cc(C)ccc3C)CC2)c(=O)c2cc(S(=O)(=O)N3CCCCC3)ccc21 | inactive: 82%
COc1ccc(N2CCN(Cc3cccn3-c3nnc(N4CCN(C5CCCCC5)CC4)s3)CC2)cc1 | inactive: 67%
Cc1ccc([N+](=O)[O-])cc1S(=O)(=O)N1CCn2cccc2C1c1ccccc1 (centres undefined) | inactive: 83%
CCOc1ccc(-n2nc(CO)c(C(=O)NCc3cccs3)n2)cc1 | active: 40%
CC(Oc1ccc(Br)cc1)C(=O)Nc1ncn[nH]1 (centres undefined) | inactive: 83%
COc1ccc(C(=O)Nc2ccccc2SCc2cc(=O)c3cccc(C)c3[nH]2)cc1 | inactive: 76%
COC(=O)c1ccccc1NC(=O)C1=C(C)C(=O)OC12CCCCCC2 | inactive: 84%
O=C(O)Cc1sc(Nc2ccccc2)nc1-c1ccccc1 | inactive: 67%
COc1ccc(S(=O)(=O)NCCS(=O)(=O)N2CCN(c3ccccc3)CC2)cc1C | inactive: 102%
Cc1ccc(S(=O)(=O)N2CCN(Cc3nc4ccc(C)cc4o3)CC2)cc1 | inactive: 89%
O=C(CS(=O)(=O)c1cccc2nsnc12)N1CCN(c2cccc(C(F)(F)F)c2)CC1 | inactive: 67%
O=C(Cn1cc(S(=O)(=O)c2ccccc2)c(=O)c2cc3c(cc21)OCO3)Nc1ccc(Cl)cc1 | inactive: 46%
COc1ccc(Br)cc1CNC(=O)CCSCc1ccc(C)cc1 | inactive: 81%
CCCCNc1c2c(nc3ccccc13)CC(C)(C)CC2O (centres undefined) | inactive: 101%
CSc1ccc(CCNC(=O)c2ccc(-c3nc(COc4ccc(C)cc4)c(C)o3)cc2)cc1 | inactive: 82%
CCOC(=O)CSc1nc2ccccc2c(=O)n1-c1cccc(C)c1 | active: 31%
O=C1c2[nH]nc(-c3ccccc3O)c2C(c2cccc(O)c2)N1Cc1ccncc1 (centres undefined) | inactive: 103%
O=C(Cn1cc(C(=O)c2ccncc2)c(=O)c2cc(F)ccc21)Nc1ccc(Cl)cc1 | inactive: 91%
CC(CN1CCCC1)OC(=O)c1ccc(F)cc1 (centres undefined) | inactive: 85%
COc1cccc(-n2cc(C(=O)OCc3ccc(F)c(F)c3)c3ccccc3c2=O)c1 | inactive: 72%

SMILES | survival
Cc1ccc2c(c1)N(S(=O)(=O)c1cc(-c3onc(C)c3C)ccc1C)CCO2 | inactive: 90%
O=C(CN1C(=O)COc2ccc(S(=O)(=O)N3CCCC3)cc21)N1CCN(c2ccc(Cl)cc2)CC1 | inactive: 90%
Cc1ccc(O)c(NC(=O)c2noc3c2CCCC3)c1 | inactive: 64%
COc1ccccc1CNC(=O)CCn1c(=O)c2ccccc2n(CC(=O)Nc2ccc(Br)cc2F)c1=O | inactive: 83%
Cc1ccccc1NC(=O)CSc1nnc(COc2ccc(Cl)cc2)o1 | inactive: 45%
CCOCCn1ccc2c(OCC(=O)NCc3ccc(C)cc3)cccc2c1=O | inactive: 101%
CCCSc1ncc(Cl)c(C(=O)NCc2ccc(OC)cc2)n1 | inactive: 52%
CN(C)CCNC(=O)c1ccc2c(c1)N(Cc1ccccc1)C(=O)c1ccccc1S2(=O)=O | inactive: 130%
COc1ccc(-c2cn3nc(N4CCCC(C(=O)Nc5cccc(Cl)c5C)C4)sc3n2)cc1 (centres undefined) | inactive: 82%
Cc1ccc(NC(=O)CSc2ccc3nnc(CCNS(=O)(=O)c4ccccc4)n3n2)cc1Cl | inactive: 56%
Cc1ccc(Cl)cc1NC(=O)N1CCC(CN2CCCCCC2)CC1 | inactive: 83%
Cc1ccc2cc(CN(C)C(=O)c3cccc(Cl)c3)c(=O)[nH]c2c1 | inactive: 73%
CC(C)N(C(=O)CSc1nnc(Cn2nnc3ccccc32)n1C)C(C)C | inactive: 81%
Cc1ccccc1NC(=O)c1cccc2c(=O)c3c([nH]c12)CCCC3 | inactive: 68%
O=C(Nc1ccc(F)c(Cl)c1)C1CCN(S(=O)(=O)c2ccc3[nH]c(=O)ccc3c2)CC1 | inactive: 55%
CCCCNc1nc2c(c(=O)n(C)c(=O)n2C)n1CC(O)COc1ccccc1C (centres undefined) | active: 42%
Cc1ccc(C(=O)Nc2nc3n(n2)C(c2ccc(F)cc2)C=C(c2ccccc2)N3)cc1 (centres undefined) | active: 43%
Cc1nn(C)c2c1c(C(F)(F)F)cc(=O)n2CC(=O)N1CCCCC1 | inactive: 94%
O=C(O)c1cccc(Nc2ncnc3ccc(Br)cc23)c1 | inactive: 119%
Cc1ccc2nc(-c3cccc(NC(=O)c4ccc(Br)o4)c3)oc2c1 | active: 15%

Reference: PubChem BioAssay AID463173 (ICCB-Longwood Screening Facility, Harvard Medical School, 2010)
